From the supplement of paper PMC3334620
Over roughly 33,000 sequences, “E-score (-0.5 to 0.5)” has its median near -0.01; the highest 2% begin near 0.26. The list shows a part of the results.

biological target: Ste12 (UniProt P13574); experiment: PBM E-score (8-mer binding enrichment) (E-score (-0.5 to 0.5)); higher = stronger / more preferred TF binding; most listed sequences are background and not binding sites; conditions: protein concentration: 200 nM; construct: GST-DNA-binding domain
Description: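 Universal 'all 10-mer' protein binding microarrays (Agilent AMADID 015681) probed with GST-tagged S. cerevisiae TFs (full-length or DBD) made by in vitro transcription/translation (PURExpress), about 100-200 nM. Bound TF was detected with fluorescent anti-GST. Each ungapped 8-mer (which stands for itself and its reverse complement) is scored by the PBM enrichment score (E-score), a modified Wilcoxon-Mann-Whitney statistic from -0.5 to +0.5, computed with the Universal PBM Analysis Suite. Scale: above 0.35 generally sequence-specific binding.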

Sequence | PBM E-score
GACGTATC | -0.0828
CAATCTCG | -0.07
AAGGACGA | -0.0886
ATGCTCCA | 0.0506
GAATTCGC | 0.0223
AAAAGAGG | -0.114
CGACGCCG | 0.123
GCAAACGC | 0.114
AGATGACT | -0.0593
AATATTCG | -0.0132
AGGCCTCG | -0.181
GACGTGCA | -0.117
CCCTACCC | -0.038
AGCCTACT | -0.155
CCTACGCA | -0.236
GCCATCAA | -0.106
CGTCTTCC | 0.0142
TAACTTGA | 0.0401
AACCTCGC | -0.0929
CCCTCCAG | 0.153
GACCGAGA | 0.054
GTTGCCGA | 0.125
AAGCGTCG | -0.123
ATCGTCCC | 0.0346
AATATAAT | 0.138

Sequence | PBM E-score
CCGACGAC | 0.0401
ACCACAAA | 0.193
CCTTAGAC | 0.00298
AGGCAGCA | 0.0458
AAGGTGAT | 0.0331
CGTGCCAG | -0.218
CTCCATTA | 0.0478
ACCAAATA | 0.151
CGCCACGA | 0.0187
GCCTGCAC | -0.209
ACGCGGGA | 0.0285
ACTTTGTG | -0.0599
GTTACATA | 0.215
CGTCTACA | -0.157
AACGGATG | 0.0467
GTTCGGTA | 0.0162
TGGCCGAA | 0.0844
CTCTCATA | -0.0984
CCAACATA | 0.149
CAAGTCTG | -0.0972
CCCTAAGC | -0.147
CGTGCGCA | 0.0233
CAGGGTGA | -0.104
CGATGCTA | -0.0117
CATGACAC | 0.176

Sequence | PBM E-score
CAGCATTC | -0.0383
ATCTGAAC | -0.0162
ACTTCTGG | -0.0906
AGTCGCTC | -0.14
CGATGCTC | -0.0221
TCACTGCA | 0.0135
TAAACGGA | 0.126
AGCCACAG | -0.256
GAAGTAGA | -0.129
ACAAGCAT | 0.059
ATGCTGAC | 0.00523
ACAAAAAG | 0.125
CCCCTACC | 0.0111
CAATTCCA | 0.17
ATCTACAC | 0.0258
CCCGATAG | 0.0566
ACTTTGTA | 0.0194
CGGCCTAC | -0.0855
CGTTATGC | -0.0583
CTTACTGA | -0.0791
CCCTACTA | -0.149
GATATGTA | 0.0692
CAGCAAAC | 0.0674
CATTGAAG | -0.0309
TTAGCGAA | 0.118

Sequence | PBM E-score
CGGCTCGC | 0.0418
AATAAGAT | 0.00235
TAGCGTGA | 0.0157
TGGGTACA | -0.0266
ATCATTTG | 0.0263
GGGTAATA | 0.109
ACTTTTAT | 0.125
CGATACGA | -0.184
AACCAGAA | 0.0614
GAAAGTGA | -0.111
ACTAGGAC | -0.151
AACTCTGA | 0.193
AGATCTTG | 0.0474
AGCGCAAT | 0.012
CTGAATTA | 0.116
CTGCTAGC | -0.206
AAATTACT | 0.107
CCGACCAC | 0.117
ATTGTCTG | 0.128
ATGGTCGG | 0.098
AGTACCGC | 0.0363
GTGCACAA | -0.159
AAGTCCGT | -0.253
GGTTTAAA | 0.211
ACGTCGAA | 0.13

Sequence | PBM E-score
CAGAAAGC | 0.104
CAATATAG | 0.117
CTGCACTA | -0.0597
AGGCATAA | 0.00844
AATAATTG | 0.18
CAAGCACA | -0.12
ACCTCCGC | -0.00893
CAGACCAA | -0.0983
CAAGGTTA | -0.0446
ATAACGAA | 0.0476
CCGTACGG | -0.159
AAAGTATA | 0.222
ACAGTGGG | -0.0947
CTTGTTCA | -0.105
CAACAGGG | 0.144
AACGGCGG | -0.0152
AGCGACCG | -0.185
TCACAGCA | 0.141
GAGATCAC | -0.125
AGAAGTAC | -0.173
AAAGTAAT | 0.247
AACACACA | 0.236
TGCGCAAA | -0.134
GAATTAGC | 0.084
GCGGTACC | 0.0146

Sequence | PBM E-score
TGCCAGCA | 0.0672
GTCGTGAA | -0.187
CATCATAA | 0.121
AACGGCCC | -0.102
CCAGAAAA | 0.176
CTAATGAC | -0.141
CCGTGGTA | -0.178
ATCGTGAA | 0.089
ACGGTATC | -0.0409
CAGTAAAA | 0.208
CCTTTAGA | -0.0422
CAACAACG | 0.0265
CCGATAGA | 0.0948
AATGATAT | 0.113
GTGCCTAA | -0.26
GACGGCTA | -0.12
AGGGACAT | 0.0172
AGAATAAA | 0.204
ACAGAGTG | -0.184
ATGCGTCG | 0.00383
TAAGAATA | 0.196
GCAAAATA | 0.226
CATGCCCG | -0.031
CGCAATGA | 0.0826
ATCAGTAA | 0.154

Sequence | PBM E-score
CTTCTTCA | 0.00129
GGTCGACC | 0.0772
GCAATAGC | 0.00424
CTATTCGC | 0.0141
GTAATCAA | 0.0538
AAGGGGTC | -0.234
GCAGACGC | -0.0476
GAGGTACA | -0.16
CTCGTCGA | -0.154
GCCTCCCC | 0.305
AACTGAAT | 0.0596
AACTATCT | 0.12
CCCCCTGC | -0.219
CTGAGCAC | -0.199
AGTCCTGC | -0.196
ATAAACTC | 0.125
ACCTATTA | 0.0333
ACAAGCCA | -0.0754
CAGTATCG | 0.00517
CCATGACA | 0.0963
CTGCTGGA | -0.0315
CCCTGGCG | -0.153
